The text below walks through data of a collection of fitness landscapes (doi:10.1038/s41467-024-54723-y).

In all, about 18,000 sequences were measured (“TetR repression strength (sort-seq, GFP reporter)”: median about 0.23, highest 2% from about 0.68 on). The list shows a part of the results.

UniProt P04483, sequence (P04483 whole entry): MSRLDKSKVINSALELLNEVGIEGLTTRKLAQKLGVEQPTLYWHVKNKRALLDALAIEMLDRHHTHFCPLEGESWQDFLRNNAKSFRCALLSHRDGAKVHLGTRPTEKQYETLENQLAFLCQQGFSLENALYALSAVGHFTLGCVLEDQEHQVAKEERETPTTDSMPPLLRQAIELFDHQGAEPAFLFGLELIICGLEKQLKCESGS

The experiment addresses TetR (class B, Tn10) (UniProt P04483). Description: TetR repression strength (sort-seq, GFP reporter) (relative to tetO2 = 1); higher = stronger repression. The conditions noted are these: E. coli. Summed up:
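Escherichia coli SIG10-MAX cells carried a low-copy plasmid library in which eight operator positions were randomized between a constitutive promoter and sfGFP, and TetR was expressed constitutively. After 5 h of growth at 37 °C in LB with 50 µg/mL chloramphenicol, 10^6 cells were FACS-sorted into 13 fluorescence bins, and each bin was Illumina-sequenced. Repression strength was the top bin index plus one minus the read-weighted mean bin, divided by the value for the unaltered operator. Across three independent transformations, only library members with ≥30 reads in every replicate and a CV ≤0.5 were averaged.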
In the case of TCCCAGGTAGTGCAAGAGA, the TetR repression strength was 0.363.
As for TCCCGCTTAGTTAATGAGA, the figure is 0.539; as for TCCCTCCAAGTTGCCGAGA, 0.341.
Take TCCCCATTAGTGCTTGAGA: the TetR repression strength is 0.282.
TCCCCACCAGTATATGAGA showed a TetR repression strength of 0.356.
TCCCATAGAGTTCTTGAGA: the TetR repression strength turned out to be 0.139.
For TCCCGGTTAGTTATGGAGA, the TetR repression strength amounted to 0.282.
On to TCCCCGCGAGTTGTTGAGA, for which the TetR repression strength was 0.333.
Sequence TCCCATTAAGTAACGGAGA returned a TetR repression strength of 0.00534.
The sequence TCCCTGTTAGTAACGGAGA showed a TetR repression strength of 0.112.
TCCCTTTGAGTAAGCGAGA: the TetR repression strength was found to be 0.0415.
For TCCCCGACAGTTTGTGAGA, the TetR repression strength was 0.191.
Take TCCCGTCCAGTAGAAGAGA: the TetR repression strength was determined as 0.126.
In the case of TCCCAGGAAGTCAGGGAGA, the TetR repression strength was determined as 0.235.
The sequence TCCCAAAGAGTTAGTGAGA yielded a TetR repression strength of 0.218.
On to TCCCTGGAAGTGGAGGAGA, for which the TetR repression strength amounted to 0.125.
On to TCCCTCTGAGTTGTGGAGA, for which the TetR repression strength was found to be 0.401.
As for TCCCTACCAGTATGAGAGA, the figure is 0.405; as for TCCCGTGAAGTTGATGAGA, 0.0259; as for TCCCTGGAAGTGCCCGAGA, 0.307.
For TCCCTTGGAGTTGCAGAGA, the TetR repression strength stood at 0.266.
Regarding TCCCATCTAGTGGCGGAGA, the TetR repression strength worked out at 0.679.
As for TCCCTTGAAGTTGATGAGA, the TetR repression strength worked out at 0.438.
For the sequence TCCCACTGAGTGGAGGAGA, the TetR repression strength worked out at 0.129.
Take TCCCAATAAGTGAGTGAGA: the TetR repression strength was 0.382.
With TCCCACGGAGTGTGCGAGA the figure was 0.0291; with TCCCCAGTAGTATTGGAGA, 0.377; with TCCCTTGTAGTCGAAGAGA, 0.314.
The sequence TCCCGATGAGTACGCGAGA displayed a TetR repression strength of 0.0789.
As for TCCCTGTTAGTAGGTGAGA, the figure is 0.115; as for TCCCAAAAAGTCCTCGAGA, 0.374; as for TCCCGCACAGTGAGGGAGA, 0.135.
TCCCGGGAAGTTGAGGAGA returned a TetR repression strength of 0.228.
In turn, TCCCCGTTAGTGCATGAGA showed a TetR repression strength of 0.258.
As for TCCCGCCGAGTTGTAGAGA, the figure is 0.276.
As for TCCCATATAGTTTAAGAGA, the figure is 0.207.
Take TCCCCGGCAGTGGCTGAGA: the TetR repression strength was 0.293.
As for TCCCGCTCAGTGTTCGAGA, the figure is 0.342; as for TCCCTCACAGTCAGTGAGA, 0.302.
TCCCTCATAGTCAATGAGA gave a TetR repression strength of 0.262.
TCCCCCCTAGTCACAGAGA came in with a TetR repression strength of 0.338.
With TCCCAGCTAGTGAGTGAGA, the TetR repression strength amounted to 0.716.
Take TCCCCAACAGTAATTGAGA: the TetR repression strength amounted to 0.307.
In the case of TCCCTCATAGTGGGAGAGA, the TetR repression strength worked out at 0.106.
As for TCCCTCCCAGTGGCAGAGA, the figure is 0.291; as for TCCCAAGGAGTGGTGGAGA, 0.227.
Sequence TCCCCTTGAGTCGGCGAGA showed a TetR repression strength of 0.0238.
TCCCGATAAGTAGAAGAGA came in with a TetR repression strength of 0.585.
With TCCCTGGTAGTAGATGAGA the figure was 0.257; with TCCCGTAAAGTGGCGGAGA, 0.166; with TCCCCATTAGTAGGAGAGA, 0.0948.
TCCCGGGAAGTCCGGGAGA showed a TetR repression strength of 0.115.
Turning to TCCCGGTAAGTAAATGAGA, the TetR repression strength is 0.364.
Regarding TCCCCAGAAGTTGCTGAGA, the TetR repression strength came out at 0.294.
As for TCCCCGTCAGTTTAAGAGA, the figure is 0.231.
With TCCCCAGTAGTGAGCGAGA the figure was 0.239.
Regarding TCCCTTAGAGTTATGGAGA, the TetR repression strength was 0.486.
For the sequence TCCCCTGAAGTGTGTGAGA, the TetR repression strength turned out to be 0.468.
For the sequence TCCCGACTAGTTGACGAGA, the TetR repression strength worked out at 0.
Turning to TCCCGGCAAGTGAAAGAGA, the TetR repression strength was 0.197.
Sequence TCCCCGTCAGTGATGGAGA had a TetR repression strength of 0.158.
TCCCTAACAGTCACGGAGA yielded a TetR repression strength of 0.06.
The sequence TCCCACATAGTAGTTGAGA gave a TetR repression strength of 0.248.
As for TCCCTTGAAGTGATAGAGA, the figure is 0.627; as for TCCCAGCCAGTCGGCGAGA, 0.316.
With TCCCGGTGAGTAAGCGAGA the figure was 0.226; with TCCCATATAGTGGGAGAGA, 0.103.
With TCCCAGAAAGTTTATGAGA the figure was 0.157.
Turning to TCCCTTGAAGTTATTGAGA, the TetR repression strength was found to be 0.218.
TCCCGACGAGTAGGAGAGA gave a TetR repression strength of 0.123.
Regarding TCCCTCGGAGTTTTCGAGA, the TetR repression strength came out at 0.41.
With TCCCTGTCAGTAGTGGAGA the figure was 0.329; with TCCCCGCGAGTATCTGAGA, 0.207.
TCCCTTTTAGTAATCGAGA displayed a TetR repression strength of 0.0739.
Consider TCCCGTGCAGTTTCGGAGA, for which the TetR repression strength came to 0.185.
TCCCCCCCAGTTGATGAGA: the TetR repression strength came to 0.304.
With TCCCCCCGAGTCGATGAGA the figure was 0.556; with TCCCAGTAAGTTCCTGAGA, 0.136; with TCCCTGCGAGTGATGGAGA, 0.18.
Sequence TCCCAGACAGTAAGAGAGA registered a TetR repression strength of 0.161.
On to TCCCGGCTAGTATAGGAGA, for which the TetR repression strength worked out at 0.0889.
Take TCCCGGAGAGTATTCGAGA: the TetR repression strength was 0.115.
TCCCTGGCAGTCGAGGAGA registered a TetR repression strength of 0.422.
The sequence TCCCTTGAAGTGGTAGAGA yielded a TetR repression strength of 0.141.
TCCCCCGTAGTGAGCGAGA: the TetR repression strength was 0.381.
Sequence TCCCGCTGAGTGGGTGAGA gave a TetR repression strength of 0.281.
TCCCACTGAGTCGATGAGA gave a TetR repression strength of 0.403.
In turn, TCCCGAGTAGTACCGGAGA registered a TetR repression strength of 0.239.
The sequence TCCCCTGGAGTTTGGGAGA gave a TetR repression strength of 0.286.
Consider TCCCTACGAGTGATCGAGA, for which the TetR repression strength is 0.243.
For TCCCGTGCAGTGGCCGAGA, the TetR repression strength was found to be 0.0825.
Sequence TCCCAGCAAGTGTTTGAGA displayed a TetR repression strength of 0.172.
In turn, TCCCGACGAGTGGGCGAGA gave a TetR repression strength of 0.0789.
As for TCCCACATAGTAGGAGAGA, the figure is 0.21; as for TCCCGACCAGTTCAAGAGA, 0.357.
In turn, TCCCTTGAAGTGCGTGAGA came in with a TetR repression strength of 0.185.
For TCCCTGTTAGTCCACGAGA, the TetR repression strength was found to be 0.605.
Consider TCCCCAGCAGTTGTCGAGA, for which the TetR repression strength amounted to 0.568.
Consider TCCCCTTGAGTATTTGAGA, for which the TetR repression strength is 0.346.
TCCCGTCAAGTGCCGGAGA yielded a TetR repression strength of 0.325.
TCCCGTCTAGTTTGTGAGA registered a TetR repression strength of 0.784.
The sequence TCCCTAGGAGTAAGTGAGA registered a TetR repression strength of 0.256.
